Experimental data from the antibiotic and cytotoxicity screens of Wong et al. (2023).
The list shows a part of the results.

Columns and labels:
HSkMC = human skeletal muscle cells; experiment: cytotoxicity call (relative viability < 0.9); conditions: 10 µM
HepG2 = experiment: cytotoxicity call (relative viability < 0.9); conditions: 10 µM
S. aureus RN4220 = experiment: growth inhibition call (relative growth <= 0.2); conditions: 50 µM

Cc1noc(C)c1S(=O)(=O)Nc1ccc2c(c1)C(=O)N([C@H](C)CO)C[C@H](C)[C@@H](CN(C)C(=O)Nc1ccc(C(F)(F)F)cc1)OCCCC[C@H](C)O2
inactive: cytotoxicity call (HSkMC) | cytotoxicity call (HepG2) | growth inhibition call (S. aureus RN4220)

COc1ccc(S(=O)(=O)Nc2ccc3c(c2)C(=O)N([C@@H](C)CO)C[C@H](C)[C@@H](CN(C)S(C)(=O)=O)OCCCC[C@@H](C)O3)cc1
inactive: cytotoxicity call (HSkMC) | cytotoxicity call (HepG2) | growth inhibition call (S. aureus RN4220)

[O-][n+]1cccc(CO)c1
inactive: cytotoxicity call (HSkMC) | cytotoxicity call (HepG2) | growth inhibition call (S. aureus RN4220)
